Assay results reported in the supplement of paper PMC11417369.
± gives the standard deviation of the averaged measurements. Some of the results follow.

tested on: PfAP2-G AP2 domain (GST-tagged); assay: gcPBM binding intensity (ln(normalized median fluorescence intensity)); higher = stronger DNA binding
In short: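 GST-tagged P. falciparum DNA-binding domains, expressed in E. coli (about 25 μg on average), were applied for 1 h to an Agilent 4 × 180k array of primer-extended double-stranded 36-bp intergenic genomic probes plus negative controls. The binding buffer was 1× PBS with 1% milk, 0.2 mg/ml BSA, 0.5% salmon testes DNA and 0.03% Triton X-100. Bound protein was detected with Alexa488 anti-GST antibody and scanned at 488 nm. Binding intensity is the highest Masliner-normalised natural-log median intensity across replicate spots of either probe orientation.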

Sequence | gcPBM binding intensity (ln)
ATAAAAATCTTTAGTAGTACATTATAAAAAACTATT [XGTACX_site5531] | 11.4 ± 0.88
ATGTGAACATTCAATGCACACGATGTAATTATACAT [CACACA_site15] | 10.1 ± 0.18
CTAATCGTGCACAACTGTACATTTGTCAAGGGCAAT [XGTACX_site8662] | 11.1 ± 0.65
AAAAAAAAAATGAGCACACATAAATAAAAACAAACA [CACACA_site1573] | 10.14 ± 0.035
ACCTATTTCAAACACACACACACACTAACAAACATA [CACACA_site8233] | 10.3 ± 0.29
TATATATCTGTGAAAATACTTAAATTGTTATAAAAA [CACACA_negctrl_site1109] | 9.88 ± 0.071
CGGCTATTTCTATATACATGCATTTAAAAAAAAAAT [TGCATGCA_site354] | 10.1 ± 0.42
AATTTAAAACGGAGATGTACATATATAAATATATAC [XGTACX_site3723] | 11.2 ± 0.71
AACATATATTAGCTTACATGCAAAAAGTAAAAAAAT [TGCATGCA_site10] | 9.97 ± 0.028
AAAACATCAAAAATGTGTACATATATATATATATAT [XGTACX_site8884] | 11.4 ± 1.1
ATATATATATATGCATGTACATATTTATCTTTATAT [XGTACX_site232] | 11.1 ± 0.57
AAATTCTGCATCGAGGTGCGCCATAAAAATTGTGGT | 10.2 ± 0.17
TACTAAAACCCATACACACACATATTTATAGTACCA [CACACA_site7484] | 10.7 ± 0.42
ATATTATATATATACACACACACATGCATGCACATA [CACACA_site7917] | 10.05 ± 0.028
TATTTTCTCGTTTGCATGCACCTTATTTTATGTGGT [GTGCAC_site9470] | 10.14 ± 0.057
TAAAATTTGCGATGCACACAGAATAGCTAATATGAC [CACACA_site2995] | 10.3 ± 0.28
CATAAATTAAAACACACACACACAAAAAAAAAAAAA [CACACA_site2262] | 9.88 ± 0.59
AGTTATTTTAAATGTAGTACACAAAAGAAATATTAA [XGTACX_site4092] | 11.6 ± 0.94
TACTATTTAAAATTTGAACACACATTATTTATTTTA [CACACA_site9020] | 9.94 ± 0.24
TTTATTTAAAAAATAAAAAAAAAAAAAAAAAAAAAA [CACACA_negctrl_site1670] | 9.54 ± 0.22
TTTAAAAATATATATTGTACATATATATATCTATGA [XGTACX_site3556] | 10.9 ± 0.61
ATAAAAATTAAAAGGAGTACTTAAATATTAAGATGG [XGTACX_site4815] | 11.5 ± 0.71

Sequence | gcPBM binding intensity (ln)
AACATAAAAATTGAAGCACACACACTAATGAAATAC [CACACA_site8287] | 10.5 ± 0.13
ACAAATCTATAAGAGTGTACGAACAGTAAAGGAATT [XGTACX_site2070] | 11.2 ± 0.64
CAGTTGGAAGGAAAGTGTACATAAAAAAAAATATAA [XGTACX_site8784] | 11.5 ± 0.93
AAAATACCATTTGAAACACACAAAAAAAAAAAAAAT [CACACA_site2981] | 9.83 ± 0.042
TATACAATATATATAACACACATATTTATATAAAAT [CACACA_site5061] | 9.75 ± 0.18
AATATATTTCGAGATACACACATATATAAAAAAAAA [CACACA_site3398] | 10.2 ± 0.4
AAAAAAAAAAAAAAGACACACAATGTGAAATAATAA [CACACA_site804] | 10.1 ± 0.11
AATAGAACAAATAAAACACACACATATATATATATA [CACACA_site8893] | 9.9 ± 0.23
ATATATCACAATAAAATTTATAGAATTTTAAATAAG [TGCATGCA_negctrl_site437] | 9.685 ± 0.078
AAAATAAAATAAAATACACACATACATACATACAAA [CACACA_site5366] | 10.01 ± 0.028
CAATAAAGAGGGAATTGTACTTTAAATATCCCTCTT [XGTACX_site1991] | 11 ± 0.61
TCTTATTTTTTTATATATACAAAGTTTTATATATAT [GTGCAC_negctrl_site314] | 9.915 ± 0.049
TTTTAAAGAAAATATTTTATCATTATTTTTTGTACT [CACACA_negctrl_site1648] | 9.84 ± 0.25
TTTTAAAATTTTTTTTTTTTTTTTTTATGAACAAGT [GTGCAC_negctrl_site124] | 9.73 ± 0.35
AATATTTTAAATATTGCATGCAATGAAAAATGTAAA [TGCATGCA_site139] | 9.98 ± 0.12
TATTTTATTGTTGTTATACACACCATATAAAATATT [CACACA_site1630] | 10.1 ± 0.12
ACTTGACACCAACACACACACATATATAAAAAAAAA [CACACA_site756] | 10.4 ± 0.49
GTTCAATCGGGTGTTACTTCAAACAAGGAACAACAA [TGCATGCA_negctrl_site471] | 10.4 ± 0.42
ATAGTAAATATAAAAAGTACTGATTCTTAAATTGTT [XGTACX_site5972] | 11 ± 0.66
ATAATATAAATAAAAACACACACAATCGTACATATA [CACACA_site9223] | 11.1 ± 0.6
AACAAAAATGAAAAAACACACATAACATATATAAAT [CACACA_site740] | 9.94 ± 0.014
AAAAAAAAAAAAAAAGTGCACTGAAAATATATTGAA [GTGCAC_site9395] | 10.8 ± 0.56
